# Measurements from PubChem BioAssay AID651820 (National Center for Advancing Translational Sciences (NCATS), 2012).
# Screen size: about 340,000 compounds; about 12,000 (3.5%) were called active. The inconclusive results got no clear call from the source; some entries with a clear call stand among them for comparison. Calls come from the whole dose curve; as a rule, active = well fitted inhibition curve with a large enough effect; inconclusive = small, poorly fitted or top-dose-only effect, or another doubt; inactive = no such curve, though single readings can be large or run the other way. No potency is given beside an inconclusive call; the fits are too rough.
# Assay: qHTS Assay for Inhibitors of Hepatitis C Virus (HCV)
# Conditions: Huh7.5.1 HCVcc-Cre (HCVcc is cell-culture hepatitis C virus) infection, luciferase reporter, 44 h; activity change, negative = inhibition: at 41.8 µM (top of the series)
# Method in brief: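 Infectious HCV cell culture screen: compound-treated cells (1,000/well, pre-plated 4 h) are infected with HCVcc-Cre at roughly 0.5 moi and grown 44 h. Infection is quantified by luciferase signal after 15 min substrate incubation at room temperature.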
# % is set by controls: 0 for no effect and ±100 for the full control effect; potency is the fitted concentration of half-maximal effect; tags give direction and shape of the fitted curve.
SMILES,Potency,"activity change, negative = inhibition"
CCc1cc(=O)oc2cc(C)cc(OCC(=O)NC3CC3)c12,inactive,–
Cc1cc(/C=C(\C#N)C(=O)Nc2ccc(F)cc2)c(C)n1-c1ccc(N2CCOCC2)c([N+](=O)[O-])c1,"inconclusive [inhibitor, partial curve]",–
CCOC(=O)c1ccccc1NS(=O)(=O)c1ccc(OCC)cc1,"inconclusive [inhibitor, partial curve]",–
Cc1cc(C)n2ncc(C(=O)NC3CCCCC3)c2n1,"inconclusive [inhibitor, partial curve]",–
O=C(NNC(=O)c1ccc(F)cc1F)c1ccc2c(c1)OCO2,inactive,–
O=C(NCC1OCCc2ccccc21)c1cc(COc2ccc(F)cc2Cl)on1 (centres undefined),"inconclusive [inhibitor, full curve]",–
COc1ccc(NC(=O)CN(C)C(=O)Cc2coc3cc(C)c(C)cc23)cc1,"inconclusive [inhibitor, single point]",–
O=C(COC(=O)C1CCN(c2ccc(C(F)(F)F)cn2)CC1)c1cccc(Br)c1,"inconclusive [inhibitor, full curve, poor fit]",–
CN(C)C(=S)Nc1nc2ccccc2s1,active: 14.1 µM,–
COc1ccc(Nc2nc(NN)nc(C)c2[N+](=O)[O-])cc1,"inconclusive [inhibitor, single point]",–
Cc1nn(Cc2ccccc2)c(Cl)c1C(=O)NCCc1ccc(Cl)cc1,"inconclusive [inhibitor, partial curve]",–
Cc1nn(CC(O)Cn2cnc3c2c(=O)n(C)c(=O)n3C)c(C)c1Br (centres undefined),"inconclusive [inhibitor, single point]",–
CC(C)(C)C1C/C(=C/c2ccco2)C(=O)/C(=C/c2ccco2)C1 (centres undefined),"inconclusive [inhibitor, single point]",–
C=CCNc1nc2c(c(=O)n(C)c(=O)n2C)n1CCCCCC,"inconclusive [inhibitor, full curve]",–
Nc1nnc(SCCOc2ccccc2)s1,inactive,–
O=C(NCc1cccnc1)c1c[nH]c2cc3c(cc2c1=O)OCCO3,"inconclusive [inhibitor, full curve]",–
COc1ccc(C2Nc3ccccc3C(=O)N2Cc2ccco2)cc1COc1ccc([N+](=O)[O-])cc1 (centres undefined),"inconclusive [inhibitor, partial curve]",–
CCc1cccc2c(C(=O)CN3C(=O)NC4(CCc5ccccc54)C3=O)c[nH]c12 (centres undefined),"inconclusive [inhibitor, full curve]",–
CCCOc1ccc(NC(=O)CNC(=O)c2cc(OC)cc(OC)c2)cc1OCCC,"inconclusive [inhibitor, partial curve]",–
Cc1onc(-c2c(F)cccc2Cl)c1C(=O)O/N=C(\N)c1ccc([N+](=O)[O-])o1,–,inconclusive: -37.5% [inhibitor]
O=C1CCN(Cc2ccccc2)N1,inactive,–
COc1ccc2c(c1OC)CN1CCc3cc4c(cc3C1C2)OCO4 (centres undefined),inactive,–
COc1cccc(NC(=O)CN(C)CC(=O)Nc2ccc(C)c(S(=O)(=O)N3CCOCC3)c2)c1,"inconclusive [inhibitor, single point]",–

SMILES,Potency,"activity change, negative = inhibition"
[O-][n+]1c2ccccc2c2n1CCN1CCOC21c1ccc(Cl)cc1 (centres undefined),"inconclusive [inhibitor, full curve]",–
COc1c(C)cc(S(=O)(=O)NCCN2CCOCC2)c(C)c1C,inactive,–
CC[n+]1c(C=C2C=C(C)OC(C)=C2)sc2ccccc21,active: 2.51 µM,–
N#Cc1ccc(CSc2nnc(COc3ccccc3)n2-c2ccccc2)cc1,"inconclusive [inhibitor, single point]",–
Cc1ccc2nc3c(cc(C(=O)NCc4ccccc4)c(=N)n3CCCn3ccnc3)c(=O)n2c1,inactive,–
O=C(CSc1nnc(NC(=O)c2ccccc2F)s1)NCc1ccc(F)cc1,inactive,–
Cn1c(CNC(=O)OC(C)(C)C)nnc1SCC(=O)N1CCOCC1,inactive,–
Cc1ccc(CN(Cc2ccccc2)C(=S)Nc2ccccc2C)o1,active: 3.16 µM,–
O=C(NC1c2ccccc2-c2ccccc21)c1ccco1,"inconclusive [inhibitor, full curve]",–
CN(C)CCCNC(=O)c1ccccn1,inactive,–
Nc1c(S(=O)(=O)c2cc(Cl)ccc2Cl)c2nc3ccccc3nc2n1CCN1CCOCC1,"inconclusive [inhibitor, single point]",–
CC(=O)N1N=C(c2ccco2)CC1c1cc2ccc(C)cc2nc1Cl (centres undefined),inactive,–
O=C(CN1CCN(CC(=O)Nc2ccccc2Cc2ccccc2)CC1)Nc1ccccc1Cl,"inconclusive [inhibitor, single point]",–
CCNS(=O)(=O)c1ccc(CCC(=O)N2CCN(c3ccc(OC)cc3)CC2)cc1,inactive,–
O=C(NCC1CCCCN1)c1cc(OCC(F)(F)F)ccc1OCC(F)(F)F (centres undefined),active: 10 µM,–
CCCN(CC1CC1)C(=O)COC(=O)c1ccc(C)cc1O,inactive,–
O=c1c2c3c(sc2n(CCN2CCOCC2)c(=O)n1Cc1ccco1)CCCCC3,active: 10 µM,–
CCCC1CCC(C(=O)n2nc(N)c3cc4ccc(OC)cc4nc32)CC1 (centres undefined),–,inactive: -6.85% [at 8.37 µM]
Cc1cc(C)c2sc(N(CCCN(C)C)C(=O)c3ccc(S(=O)(=O)N4CCCc5ccccc54)cc3)nc2c1,"inconclusive [inhibitor, partial curve]",–
Cc1nc2ccccc2c(=O)n1-c1ccc(Cl)c(Cl)c1,"inconclusive [inhibitor, full curve]",–
CCN1C(=O)[C@@H]2Cc3c([nH]c4ccccc34)C(c3ccc(OC)cc3)N2C1=S (some centres undefined),"inconclusive [inhibitor, single point]",–
O=C(CC1C(=O)NCCN1Cc1cccc(Oc2ccccc2)c1)NCCc1ccncc1 (centres undefined),inactive,–
CC(C)(C)c1ccc(C(=O)NNC(=S)NC(=O)c2cccnc2)cc1,"inconclusive [inhibitor, single point]",–

SMILES,Potency,"activity change, negative = inhibition"
Cn1c(=O)c2c([nH]c(=O)n2C)n(C)c1=O,"inconclusive [inhibitor, single point]",–
Fc1ccc(CCNc2ncnc3[nH]ncc23)cc1,"inconclusive [inhibitor, single point]",–
CC(C)Cn1c(C(C)C)nc([N+](=O)[O-])c1S(=O)(=O)c1ccc(F)cc1,"inconclusive [inhibitor, single point]",–
O=C(c1cccc(S(=O)(=O)N2CCc3ccccc3C2)c1)N1CCN(c2ccc(O)cc2)CC1,"inconclusive [inhibitor, partial curve, poor fit]",–
COc1ccc(C2=NN(C(=O)COC(=O)c3ccc(S(C)(=O)=O)c([N+](=O)[O-])c3)C(c3ccco3)C2)cc1 (centres undefined),"inconclusive [inhibitor, single point]",–
CN(c1ccc([N+](=O)[O-])cc1/C=N/NC(=O)COc1ccccc1)C1CCCCC1,"inconclusive [inhibitor, single point]",–
O=[N+]([O-])c1ccc(S(=O)(=O)CC2CSc3nc4ccccc4n32)cc1 (centres undefined),"inconclusive [inhibitor, single point]",–
Cc1nnc(SCC(=O)Nc2sc3c(c2C(=O)c2ccccc2)CCCC3)s1,"inconclusive [inhibitor, full curve]",–
O=C(COc1ccc(C(=O)NCc2cccnc2)cc1)Nc1cccc(C(F)(F)F)c1,"inconclusive [inhibitor, single point]",–
CCOc1cc(NC(=O)C2CC2)c(OCC)cc1NC(=O)c1cccc(F)c1,"inconclusive [inhibitor, single point]",–
CC1CCC(NC(=O)CN2C(=O)NC3(CCCCCC3)C2=O)CC1 (centres undefined),inactive,–
Cc1ccccc1Nc1nc(N)nc(COC(=O)c2ccco2)n1,"inconclusive [inhibitor, single point]",–
Cc1cc(C)c(C)c(S(=O)(=O)N2CCN(C(=O)c3cc(=O)[nH]c4ccccc34)CC2)c1C,"inconclusive [inhibitor, partial curve]",–
O=S(=O)(NCC(c1ccco1)N1CCc2ccccc2C1)c1ccc(Br)cc1 (centres undefined),"inconclusive [inhibitor, partial curve, poor fit]",–
Cc1ccc(Nc2nc(N/N=C\c3ccc4c(c3)OCO4)nc(N3CCOCC3)n2)cc1,active: 11.2 µM,–
CSc1nc(N)nc2c1ncn2CC(=O)NCCCc1ccccc1,"inconclusive [inhibitor, full curve]",–
Cc1c(C)c2ccc(OC3CCCCC3=O)cc2oc1=O (centres undefined),inactive,–
CCc1cccc2c(C(=O)CN3C(=O)NC(C)(c4cccc5ccccc45)C3=O)c[nH]c12 (centres undefined),"inconclusive [inhibitor, partial curve]",–
O=C(Nc1ccc2c(c1)OCCO2)c1cc2sccc2n1Cc1ccc(F)cc1,"inconclusive [inhibitor, single point]",–
COc1cccc(N2CCN(CC(=O)NC(C)c3ccccc3)CC2)c1 (centres undefined),"inconclusive [inhibitor, single point]",–
C[C@H](NC(=O)c1[nH]cnc1C(=O)Nc1ccccc1)c1ccccc1,"inconclusive [inhibitor, single point]",–
CC12CCC(=O)N1C(C(=O)Nc1ccc(Cl)c(S(=O)(=O)N3CCCCC3)c1)CS2 (centres undefined),"inconclusive [inhibitor, single point]",–
Cc1cc(C(F)(F)F)n2nc(-c3cnn(C)c3C(F)(F)F)c(Cl)c2n1,inactive,–
